# The other results are listed elsewhere or left out. At the low end of the ranking the order means little.
# Molecular target: T1, ELK1 (UniProt P19419)
# T1 sequence: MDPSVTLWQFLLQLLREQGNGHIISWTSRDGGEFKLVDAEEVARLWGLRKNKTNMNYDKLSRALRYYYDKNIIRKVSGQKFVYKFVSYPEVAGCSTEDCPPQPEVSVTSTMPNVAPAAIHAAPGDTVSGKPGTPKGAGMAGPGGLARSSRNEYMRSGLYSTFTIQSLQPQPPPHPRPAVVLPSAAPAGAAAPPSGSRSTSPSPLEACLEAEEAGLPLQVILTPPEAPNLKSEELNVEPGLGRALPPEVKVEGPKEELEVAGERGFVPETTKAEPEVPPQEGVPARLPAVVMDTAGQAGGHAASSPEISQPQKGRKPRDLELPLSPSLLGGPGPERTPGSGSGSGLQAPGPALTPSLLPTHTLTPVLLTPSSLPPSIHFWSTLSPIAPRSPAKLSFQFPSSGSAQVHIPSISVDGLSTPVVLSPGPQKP
# Assay: custom PBM
# Details: custom protein-binding microarray; buffer, salt, pH and temperature not stated; high values mean tight binding; double strand, one strand shown
row,Sequence,binding signal (log fluorescence intensity)
1,CGGAAGTGTCGGAAACGTCGGATATCCGGTTCTTCTGTCTTGATTCGCTTGACGCTGCTG,13.5
2,TAAAGGGAAGACGTTTGTGGTAGTTCCGGGTATTAAGTCTTGATTCGCTTGACGCTGCTG,11
3,CACAAATTTTACAGTAATGTAGCACGCGTAACTCCTGTCTTGATTCGCTTGACGCTGCTG,8.89
4,CAGCATAGGACTTCTTCCCTGAAGCAATTGATACCCGTCTTGATTCGCTTGACGCTGCTG,8.91
5,CAGCATAGGACTTCTTCCCTGAACCAATTGATAACCGTCTTGATTCGCTTGACGCTGCTG,8.89
6,GCTGCTGCGGTGCATACCCCAACGGATGTGACCCCGGTCTTGATTCGCTTGACGCTGCTG,9.21
7,GAGTATAGGATCCCATCCAACACACGTGTTAAAATGGTCTTGATTCGCTTGACGCTGCTG,9.01
8,CTGGGACTTGACCCAACTCTGCCACGTGCGTCGTTTGTCTTGATTCGCTTGACGCTGCTG,8.78
9,GGAAAAAGGCCCGGGGTAACACCGGAAGTGGGCTTAGTCTTGATTCGCTTGACGCTGCTG,11.8
10,TGTCGGGTAAGGGAATGTAGATCACGTGAATGAAGAGTCTTGATTCGCTTGACGCTGCTG,9.1
11,TGTCGGGTAAGGGAATGTAGATCACGTTAATGAAAAGTCTTGATTCGCTTGACGCTGCTG,8.78
12,CAGCATAGGACTTCTTCCCTGAAACAATTGATAACCGTCTTGATTCGCTTGACGCTGCTG,8.97
13,CGGAAGTGTCGTAAACGTAGGATATCCGGTTCTTCTGTCTTGATTCGCTTGACGCTGCTG,11.8
14,TTGTATAGGATCCCATCCAACACACGTGTTAAAATGGTCTTGATTCGCTTGACGCTGCTG,8.83
15,CGGAAGTGTCGTAAACGTCGGCTATCCGGTTCTTCTGTCTTGATTCGCTTGACGCTGCTG,9.69
16,CACAATCTTTACAGTAATGTAGCACGCGTAACTCCTGTCTTGATTCGCTTGACGCTGCTG,8.76
17,GCTGCTGCGGGGCATACCCCACCGGATGTGACCCCGGTCTTGATTCGCTTGACGCTGCTG,10.3
18,CAGCATAGGACTTCTTCCCTGAAGCAATTGAAAACCGTCTTGATTCGCTTGACGCTGCTG,8.98
19,CTGGCACTTGACCCAACTCTGCCACGTGGGTCGTTTGTCTTGATTCGCTTGACGCTGCTG,8.93
20,CACAATTTTTACAGTAATCTAGCACGCGTAACTCCTGTCTTGATTCGCTTGACGCTGCTG,8.92
21,TCCGGCTACCAGCTTCACCCACTTCAGGCCTTGTAGGTCTTGATTCGCTTGACGCTGCTG,8.87

row,Sequence,binding signal (log fluorescence intensity)
1,CTGGGACTTGACCCAACTCTGCCACATGGGTCGTTTGTCTTGATTCGCTTGACGCTGCTG,8.95
2,TCCGGTTACCAGCTCCACCCACTTCAGGCCTTGTAGGTCTTGATTCGCTTGACGCTGCTG,8.91
3,TACTGACTTATATATGCGAATGCACGTGAATAGACCGTCTTGATTCGCTTGACGCTGCTG,8.85
4,TAATGGGAAGACGGTTGTGGTAGTTCCGGGTATTAAGTCTTGATTCGCTTGACGCTGCTG,11.2
5,CAGCATAGGACTTCTTCCCTGAAGCAGTTGATAACCGTCTTGATTCGCTTGACGCTGCTG,8.98
6,TACTGACTTATATATGCGAATGCACATGAATGGACCGTCTTGATTCGCTTGACGCTGCTG,8.96
7,TAAAGGGAAGACGGTTGTGGTAGTTCCGCGTATTAAGTCTTGATTCGCTTGACGCTGCTG,9.44
8,CACAATTTTTACAGTAATGTAGCACGCGTACCTCCTGTCTTGATTCGCTTGACGCTGCTG,8.78
9,GGAAAAAGGCCCAGGGTAACACCGGAGGTGGGCTTAGTCTTGATTCGCTTGACGCTGCTG,9.1
10,GATTAATTTCTGTCCTTATTCGCACGTGCCATAACAGTCTTGATTCGCTTGACGCTGCTG,8.82
11,CACAATTTTTACAGTAATGTAGCACGCGCAACTCCTGTCTTGATTCGCTTGACGCTGCTG,8.83
12,GCAAAAAGGCCCAGGGTAACACCGGAAGTGGGCTTAGTCTTGATTCGCTTGACGCTGCTG,11
13,TCCGGCTACCAGCTCCACCCACTTCAGGCGTTGTAGGTCTTGATTCGCTTGACGCTGCTG,8.92
14,GATTAATTTCTGCCCTTATTCGCAAGTGCCATAACAGTCTTGATTCGCTTGACGCTGCTG,8.87
15,AATTAATTTCTGCCCTTATTCGCACGTGCCATAACAGTCTTGATTCGCTTGACGCTGCTG,8.87
16,GTGTATAGGATCCCATCCAACACACGTGTTAAAATCGTCTTGATTCGCTTGACGCTGCTG,8.88
17,CAGGATAGGACTTCTTCCCTGAAGCAATTGATAACCGTCTTGATTCGCTTGACGCTGCTG,8.78
18,GGGAAGTGTCGTAAACGTCGGATATCCGGTTCTTCTGTCTTGATTCGCTTGACGCTGCTG,12.6
19,TAAAGGGAAGACGGTTGTGGTCGTTCCGGGTATTAAGTCTTGATTCGCTTGACGCTGCTG,9.83
20,CAGCATAGGACTTCTTCCCTGAAGCAATTGATGACCGTCTTGATTCGCTTGACGCTGCTG,8.87
21,CAGCATAGAACTTCTTCCCTGAAGCAATTGATAACCGTCTTGATTCGCTTGACGCTGCTG,8.83

row,Sequence,binding signal (log fluorescence intensity)
1,TAAAGGGAAGACGGTTGTGGTAGTTCCGGGTATGAAGTCTTGATTCGCTTGACGCTGCTG,11.4
2,GGAAAAAGGCCCACGGTAACACCGGAAGTGGGCTTAGTCTTGATTCGCTTGACGCTGCTG,11.2
3,TCAGGCTACCAGCTCCACCCACTTCAGGCCTTGTAGGTCTTGATTCGCTTGACGCTGCTG,8.73
4,CACAATTTTTACAGTAATGTAGCACGCGTAGCTCCTGTCTTGATTCGCTTGACGCTGCTG,9.06
5,GTGTCTAGGATCCCATCCAACACACGTGTTAAAATGGTCTTGATTCGCTTGACGCTGCTG,8.94
6,GCTGCAGCGGTGCATACCCCACCGGATGTGACCCCGGTCTTGATTCGCTTGACGCTGCTG,10.1
7,GCTGCTGCGGTGCATACACCACCGGATGTGACCCCGGTCTTGATTCGCTTGACGCTGCTG,10.2
8,TCCGGCTACCAGCTCCACCCTCTTCAGGCCTTGTAGGTCTTGATTCGCTTGACGCTGCTG,9
9,GCTGCTGCGGTGAATACCCCACCGGATGTGACCCCGGTCTTGATTCGCTTGACGCTGCTG,10.4
10,GGAAAAAGGCCCAGGGTAACACCGGAAATGGGCTTAGTCTTGATTCGCTTGACGCTGCTG,10.3
11,TCCGGCTTCCAGCTCCACCCACTTCAGGCCTTGTAGGTCTTGATTCGCTTGACGCTGCTG,9.08
12,CAACATAGGACTTCTTCCCTGAAGCAATTGATAACCGTCTTGATTCGCTTGACGCTGCTG,8.8
13,GCTGCTCCGGTGCATACCCCACCGGATGTGACCCCGGTCTTGATTCGCTTGACGCTGCTG,12.3
14,TGTCGAGTAAGGGAATGTAGATCACGTGAATGAAAAGTCTTGATTCGCTTGACGCTGCTG,8.95
15,TCCGGCTACCAGCTCCGCCCACTTCAGGCCTTGTAGGTCTTGATTCGCTTGACGCTGCTG,8.79
16,GGAAAAAGGCCCAGGTTAACACCGGAAGTGGGCTTAGTCTTGATTCGCTTGACGCTGCTG,11.1
17,CACAATTTTTACAGTAATGTAGAACGCGTAACTCCTGTCTTGATTCGCTTGACGCTGCTG,8.89
18,GATTAATTTCTGCCCTTATTCGCACGTGCCAAAACAGTCTTGATTCGCTTGACGCTGCTG,8.96
19,GGAAAAAGGCCGAGGGTAACACCGGAAGTGGGCTTAGTCTTGATTCGCTTGACGCTGCTG,10.9
20,TGTCGGGTAAGGGAATGTAGAGCACGTGAATGAAAAGTCTTGATTCGCTTGACGCTGCTG,8.88
21,TGTCGGGTAAGGGAATGTAGATCACGAGAATGAAAAGTCTTGATTCGCTTGACGCTGCTG,8.83

row,Sequence,binding signal (log fluorescence intensity)
1,TGTCGGTTAAGGGAATGTAGATCACGTGAATGAAAAGTCTTGATTCGCTTGACGCTGCTG,8.82
2,TGTCGGGAAAGGGAATGTAGATCACGTGAATGAAAAGTCTTGATTCGCTTGACGCTGCTG,8.89
3,GATTAATTTCTGCCCTTATTCCCACGTGCCATAACAGTCTTGATTCGCTTGACGCTGCTG,8.94
4,TACTGATTTATATATGCGAATGCACATGAATAGACCGTCTTGATTCGCTTGACGCTGCTG,8.91
5,TCCGGCTACCAGCTCCACCCACTTCAGGCCTTATAGGTCTTGATTCGCTTGACGCTGCTG,8.86
6,GGTCGGGTAAGGGAATGTAGATCACGTGAATGAAAAGTCTTGATTCGCTTGACGCTGCTG,8.83
7,TCCGGCTACCAGCTCCACCCACTTCAGGACTTGTAGGTCTTGATTCGCTTGACGCTGCTG,8.95
8,GACTAATTTCTGCCCTTATTCGCACGTGCCATAACAGTCTTGATTCGCTTGACGCTGCTG,8.95
9,CACAATTTTTACAGTACTGTAGCACGCGTAACTCCTGTCTTGATTCGCTTGACGCTGCTG,8.94
10,TGTGGGGTAAGGGAATGTAGATCACGTGAATGAAAAGTCTTGATTCGCTTGACGCTGCTG,8.71
11,CACAATTTTTACAGTAATGTAGCACGCGTAACTCCGGTCTTGATTCGCTTGACGCTGCTG,8.72
12,TGTCGGGTAAGAGAATGTAGATCACGTGAATGAAAAGTCTTGATTCGCTTGACGCTGCTG,8.77
13,CAGCATGGGACTTCTTCCCTGAAGCAATTGATAACCGTCTTGATTCGCTTGACGCTGCTG,8.92
14,CACAATTTTTACAGTAATGTAGCATGCGTAACTCCTGTCTTGATTCGCTTGACGCTGCTG,8.94
15,CAGCATAGGACTTCTTCCCTGAAGTAATTGATAACCGTCTTGATTCGCTTGACGCTGCTG,8.66
16,GATTAATTTCTGCCCTTATTCGCACGTGCCACAACAGTCTTGATTCGCTTGACGCTGCTG,8.75
17,TAAAGGGAAGAAGGTTGTGGTAGTTCCGGGTATTAAGTCTTGATTCGCTTGACGCTGCTG,11.2
18,CACAATTTTTAAAGTAATGTAGCACGCGTAACTCCTGTCTTGATTCGCTTGACGCTGCTG,8.83
